# Reference: the supplement of paper PMC4604168 (melanoma cell lines)
# Some of the results follow. Single values are uncertain, as repeats are few or missing.
# How the values were obtained:
# Assay in all cases: cell count relative to DMSO control; melanoma cells; higher = more viable cells
# Conditions in all cases: library dose: low library concentration; 72 h; first compound 0.4 µM
# WM115 = test system: WM115
# WM1716 = test system: WM1716
# WM1745 = test system: WM1745
# WM3526 = test system: WM3526
# WM3619 = test system: WM3619
# WM451Lu = test system: WM451Lu
# 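Note: cell number obtained by counting DAPI-stained nuclei in high-throughput microscope images with image analysis software, screen run in 1,536-well plates.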
Compound,cell count (WM115),cell count (WM1716),cell count (WM1745),cell count (WM3526),cell count (WM3619),cell count (WM451Lu)
CCCCCCCCCCCCCCCCCCOP(=O)([O-])OC1CC[N+](C)(C)CC1 [Perifosine] + O=C(Nc1ccccc1)c1cc([N+](=O)[O-])ccc1Cl [GW9662] (partner dose 2 µM),99%,98.3%,93%,95.3%,86.7%,95.7%
CCCCCCCCCCCCCCCCCCOP(=O)([O-])OC1CC[N+](C)(C)CC1 [Perifosine] + COc1ccc(-c2ccc3c(N4CCOCC4)nc(N4C[C@@H](C)O[C@@H](C)C4)nc3n2)cc1CO [KU0063794] (partner dose 0.02 µM),92.7%,95%,96.2%,89.1%,85.9%,95.1%
Cn1sc(=O)n(Cc2ccccc2)c1=O + COc1ccc(C2=N[C@@H](c3ccc(Cl)cc3)[C@@H](c3ccc(Cl)cc3)N2C(=O)N2CCNC(=O)C2)c(OC(C)C)c1 [Nutlin-3] (partner dose 0.1 µM),93.2%,100%,79.6%,98.8%,96%,85.6%
Cn1sc(=O)n(Cc2ccccc2)c1=O + N#Cc1c(O)c2c(-c3ccc(-c4ccccc4O)cc3)csc2[nH]c1=O [A769662] (partner dose 2 µM),105%,95.8%,99.9%,90.1%,98%,129%
CCCCCCCCCCCCCCCCCCOP(=O)([O-])OC1CC[N+](C)(C)CC1 [Perifosine] + O=c1cc(-c2cccc3c2Sc2ccccc2S3)oc(N2CCOCC2)c1 [KU55933] (partner dose 1 µM),106%,110%,73.7%,69.7%,90.8%,93.9%
C[C@@H](N)c1ccc(C(=O)Nc2ccnc3[nH]ccc23)cc1 + CCCCCCCCCCCC1=C(O)C(=O)C=C(O)C1=O [Embelin] (partner dose 1.2 µM),112%,63.2%,76.9%,93.3%,85.6%,89.3%
CCCCCCCCCCCCCCCCCCOP(=O)([O-])OC1CC[N+](C)(C)CC1 [Perifosine] + CC(C)C[C@H](NC(=O)[C@H](Cc1ccccc1)NC(=O)c1cnccn1)B(O)O [Bortezomib] (partner dose 0.001 µM),105%,73.3%,79.6%,72.7%,73.6%,99.1%
Cn1sc(=O)n(Cc2ccccc2)c1=O + C=C(c1ccc(C(=O)O)cc1)c1cc2c(cc1C)C(C)(C)CCC2(C)C [Bexarotene] (partner dose 2 µM),100%,97.6%,108%,98.8%,96%,89.5%
C[C@@H](N)c1ccc(C(=O)Nc2ccnc3[nH]ccc23)cc1 + Cn1nnc2c(C(N)=O)ncn2c1=O [temozolomide] (partner dose 2 µM),112%,61.6%,72.7%,119%,87%,98.8%
C[C@@H](N)c1ccc(C(=O)Nc2ccnc3[nH]ccc23)cc1 + Cn1sc(=O)n(Cc2ccccc2)c1=O [TDZD-8] (partner dose 0.4 µM),91.1%,76.5%,94.2%,148%,92.4%,81.3%
C[C@@H](N)c1ccc(C(=O)Nc2ccnc3[nH]ccc23)cc1 + NC1(c2ccc(-c3nc4ccn5c(=O)[nH]nc5c4cc3-c3ccccc3)cc2)CCC1 [MK2206] (partner dose 0.4 µM),89%,51.1%,72.9%,79.4%,86.1%,86.5%
C[C@@H](N)c1ccc(C(=O)Nc2ccnc3[nH]ccc23)cc1 + NC(=O)Nc1cc(-c2cccc(F)c2)sc1C(=O)N[C@H]1CCCNC1 [AZD7762] (partner dose 0.02 µM),109%,62.4%,74.3%,106%,38.6%,96.8%
CCCCCCCCCCCCCCCCCCOP(=O)([O-])OC1CC[N+](C)(C)CC1 [Perifosine] + NC(=O)Nc1cc(-c2cccc(F)c2)sc1C(=O)N[C@H]1CCCNC1 [AZD7762] (partner dose 0.02 µM),94.8%,102%,112%,90%,58.1%,84.8%
C[C@@H](N)c1ccc(C(=O)Nc2ccnc3[nH]ccc23)cc1 + Nc1ncn([C@H]2C[C@H](O)[C@@H](CO)O2)c(=O)n1 [decitabine] (partner dose 0.1 µM),87.1%,54.2%,83.3%,105%,95.2%,90.1%
Cn1sc(=O)n(Cc2ccccc2)c1=O + O=C(Nc1cccc(Cl)c1)Nc1ncc(CCNc2ncnc3ccsc23)s1 [SNS314] (partner dose 0.0008 µM),80.8%,109%,85.4%,83.3%,94.7%,68.4%
C[C@@H](N)c1ccc(C(=O)Nc2ccnc3[nH]ccc23)cc1 + CC(=O)c1c(C)c2cnc(Nc3ccc(N4CCNCC4)cn3)nc2n(C2CCCC2)c1=O [palbociclib] (partner dose 0.04 µM),87.6%,59.5%,75.8%,70.3%,60.3%,70.6%

Compound,cell count (WM115),cell count (WM1716),cell count (WM1745),cell count (WM3526),cell count (WM3619),cell count (WM451Lu)
Cn1sc(=O)n(Cc2ccccc2)c1=O + Cc1cc([N+](=O)[O-])ccc1NS(=O)(=O)c1cc(Cl)ccc1Cl [FH535] (partner dose 1 µM),85.8%,84.9%,104%,99.1%,83.4%,93.4%
CCCCCCCCCCCCCCCCCCOP(=O)([O-])OC1CC[N+](C)(C)CC1 [Perifosine] + C[C@@H](N)c1ccc(C(=O)Nc2ccnc3[nH]ccc23)cc1 [RKI983] (partner dose 0.4 µM),123%,79.3%,92.1%,93.1%,85%,94.9%
CCCCCCCCCCCCCCCCCCOP(=O)([O-])OC1CC[N+](C)(C)CC1 [Perifosine] + COc1cc(Nc2ncc(F)c(Nc3ccc4c(n3)NC(=O)C(C)(C)O4)n2)cc(OC)c1OC [Tamatinib] (partner dose 0.4 µM),91.9%,49.1%,60.5%,67.7%,100%,52.8%
Cn1sc(=O)n(Cc2ccccc2)c1=O + C#Cc1cccc(Nc2ncnc3cc(OCCOC)c(OCCOC)cc23)c1 [erlotinib] (partner dose 0.8 µM),89%,87.7%,81.3%,91.8%,102%,91.9%
C[C@@H](N)c1ccc(C(=O)Nc2ccnc3[nH]ccc23)cc1 + O=C1NC(=O)/C(=C/c2ccc(-c3ccc(F)cc3O)o2)S1 [AS252424] (partner dose 1 µM),109%,61%,82.7%,92.9%,95.7%,100%
Cn1sc(=O)n(Cc2ccccc2)c1=O + Nc1ccn([C@@H]2O[C@H](CO)[C@@H](O)C2(F)F)c(=O)n1 [gemcitabine] (partner dose 0.0004 µM),97.4%,101%,77.2%,128%,73.5%,91.6%
C[C@@H](N)c1ccc(C(=O)Nc2ccnc3[nH]ccc23)cc1 + CN(C)S(=O)(=O)c1ccc2c(c1)/C(=C/c1cc3c([nH]1)CCCC3)C(=O)N2 [SU6656] (partner dose 0.4 µM),66.3%,79.9%,62.1%,97.9%,71.1%,101%
C[C@@H](N)c1ccc(C(=O)Nc2ccnc3[nH]ccc23)cc1 + OCCn1cc(-c2cnc3nnn(Cc4ccc5ncccc5c4)c3n2)cn1 [PF04217903] (partner dose 1 µM),102%,61.7%,73%,111%,84.8%,84.4%
Cn1sc(=O)n(Cc2ccccc2)c1=O + C=CCNC1=C2C[C@@H](C)C[C@H](OC)[C@H](O)[C@@H](C)/C=C(\C)[C@H](OC(N)=O)[C@@H](OC)/C=C\C=C(/C)C(=O)NC(=CC1=O)C2=O [Tanespimycin] (partner dose 0.002 µM),96.7%,82.7%,90.6%,81.1%,97.3%,96.3%
C[C@@H](N)c1ccc(C(=O)Nc2ccnc3[nH]ccc23)cc1 + C=CCNC1=C2C[C@@H](C)C[C@H](OC)[C@H](O)[C@@H](C)/C=C(\C)[C@H](OC(N)=O)[C@@H](OC)/C=C\C=C(/C)C(=O)NC(=CC1=O)C2=O [Tanespimycin] (partner dose 0.002 µM),93%,68.2%,77.4%,103%,106%,88.3%
CCCCCCCCCCCCCCCCCCOP(=O)([O-])OC1CC[N+](C)(C)CC1 [Perifosine] + Nc1nc(F)nc2c1ncn2[C@@H]1O[C@H](CO)[C@@H](O)[C@@H]1O [fludarabine] (partner dose 0.2 µM),97.5%,92.4%,87.6%,36.4%,89.2%,50%
CCCCCCCCCCCCCCCCCCOP(=O)([O-])OC1CC[N+](C)(C)CC1 [Perifosine] + CNC(=O)c1cc(Oc2ccc(NC(=O)Nc3ccc(Cl)c(C(F)(F)F)c3)cc2)ccn1 [sorafenib] (partner dose 0.4 µM),90.8%,101%,90.7%,103%,93.8%,107%
CCCCCCCCCCCCCCCCCCOP(=O)([O-])OC1CC[N+](C)(C)CC1 [Perifosine] + C=CCn1c(=O)c2cnc(Nc3ccc(N4CCN(C)CC4)cc3)nc2n1-c1cccc(C(C)(C)O)n1 [MK1775] (partner dose 0.02 µM),97.6%,73.5%,90.3%,78.7%,96.5%,84.8%
CCCCCCCCCCCCCCCCCCOP(=O)([O-])OC1CC[N+](C)(C)CC1 [Perifosine] + COc1ccc(C2=N[C@@H](c3ccc(Cl)cc3)[C@@H](c3ccc(Cl)cc3)N2C(=O)N2CCNC(=O)C2)c(OC(C)C)c1 [Nutlin-3] (partner dose 0.1 µM),104%,98.9%,115%,108%,115%,105%
Cn1sc(=O)n(Cc2ccccc2)c1=O + O=C(O)[C@@H]1[O][Sb](=[O])([O][Sb]2(=[O])[O][C@H]([C@H](O)CO)[C@H](O)[C@H](C(=O)O)[O]2)[O][C@H]([C@H](O)CO)[C@@H]1O [stibogluconate] (partner dose 2 µM),96.1%,104%,104%,102%,88.4%,95.3%
